Laboratory results published in the RNAGym collection of RNA variant scans (doi:10.7554/elife.90254).
The source gives no read counts; variants with many changes may rest on few reads.

B1: LINE1-mini (parent)
chain: GGCAGAGCUCAACACAGCGUGGCAAAGUGGCUGUGGCUAGACUGCC

Variants of: B1
Assay: self-cleavage, relative activity (ratio to wild type); higher = more cleavage; in vitro, sequencing; the parent is a self-cleaving ribozyme

Row | Variant | self-cleavage
1 | GGCAAAGCUAAACACAGCGUGGCAAACUUGCUGUCGCUAGACUCCC | 0
2 | GACAGAGCCCAACACAGCGUGGCAAAGUGGCUGUGGGUAGACUGCC | 0.03
3 | GGCAGAGUUCAACACAGCGUGGCAAACUGGCUGUGGCUUGACUGCC | 0.05
4 | GGCAGAGGUCAACCCAGCGUGGCAGAGUGGCUGUGGCUAGACUGCC | 0.02
5 | GGCAGAGCUUAACACAGCGGGUCAAAGUGGCUGUGGCUAGACUGCC | 0.11
6 | GUCAGAGCUCAACACGGCGUCGCAAAGUCGCUGUGGCUAGACUGCC | 0.02
7 | GGCAGAGCUCAACACAGCCUGGCAUAGUGGUUGUGGCUAGACGUCC | 0.18
8 | GGCAGAGCGGAACACAGCGUGGCAAAGUGGCUGUGGCCAGACUGCC | 0.03
9 | GGCAGCGCCCAACACAGCGUGGCAAAGUGGCUGUAGCUAGACUGUC | 0.03
10 | GGCAGAGCUCAAUACAGUGUGGCAAAAUGGCUGUGGCUAGACUGCC | 0.17
11 | GGCAGAGCUCAACACAGCGCGCCAAAGUGGCUGUUGCUAGACUGCC | 0.08
12 | CCCACAGCUCAACACAGCGUGGCAAAGUGGCUGUGGCUAGACUGCC | 0.02
13 | GGCAGAGCUCAACACAGCGUGGCAAAGUGAAUGUGGCUUGACUGCA | 0.01
14 | GCCAGAGCUCAACACAGCGUGGCAAAGUGGUUGUGGUUAGACUGCC | 0.03
15 | GGCAGAGCUUAACACAGCGUGGCAAAGUGGCUGUGACUAGAAUGCC | 0
16 | GGCCUAGCUAAGCACAGCGUGGCAAAGUGGCUGUGGCUAGACUGCC | 0
17 | GGCAGAGCUCAACACAGCGUGGCAAAGUGCCUGUGGCUCGACUACC | 0.09
18 | GGCAGAGCUCAACACAGCGUGACAAAGCACCUGUGGCUAGACUGAC | 0.39
19 | AGCAGAGCUCAACUCAGUGUUGCAAAGUGGCUGUGGCUAGACUGCC | 0.14
20 | GGCAGAGCUCACCACAGCGUGGCAAUGUGGCUGUAGCUAGACUGCC | 0.02
21 | GGCAGAGCUCAACACAACGUGGCAAGGUGGCUGAGGCUAGACUGCC | 0.02
22 | GGCAGAGCACAACACAUCGUGGCAAAGUGGCUGUGGCUAGAUUGCC | 0.05
23 | GGCAGAGCUAAACAUAGCGUGUCAAAGUGGCUGUGGCUAGACUGCC | 0.05

Row | Variant | self-cleavage
24 | GGAAGAGUUCAACACACCGUGGCAAAGUGGCUGUGCCUAGACAGUC | 0.07
25 | GGCAGAGCUCAACACAGCGUGGCCAAGUGGCUGUUGCUAGACUGCA | 0.05
26 | GGCAGAGCUCAAAACAGCGUGGCAAAGUGGCUGUGGUUAUUCUGCC | 0.2
27 | GGCCGUGCUCAACACAGCGUGGCAAAGUGGCUGUGGCUCGACUGCC | 0.1
28 | GGCACAGCUCAACACAGCGUCGCAAAGUGGCCGUUGCUAGACUGCC | 0.23
29 | GGCAGAGCGCAACACAGCGUGGCAAGGUGGCUGUGGCUAGAAUGCC | 0.07
30 | GUCACAGCUCAACACAGCGUGGCAAAGUGGCGGUGGGUCGACUGCC | 0.01
31 | AGUAGAGCUCAACAUAGCGUGACAAAGCGGCUGUGGGUAGACUGCC | 0.25
32 | GGCAGAUCUCAAGACAGCGUGGCAAACUGGCUGUGGCUAGACUGCC | 0.1
33 | GGCAGAGAUCAAGACAGCGUGGCAAAGUGGCUUUGGCUAGACUGCC | 0.08
34 | GGCAGAGCUCAAAACUGCGUGGCAAAGUGGCUGUGACUAGACUGCC | 0.1
35 | GGCAGAGCUCAACACAGCGUGUCAGAGUGGCUGUGGCUAGUGUGCC | 0.04
36 | GGCAUAGCUCAACACAGCGUGGCAAAGUGGCUGUGGCUAGACUACU | 0.04
37 | GUCAGAGCUUAACACAGCGUGGCAAAGUGUCUGCCACUAGACUGCC | 0
38 | GGCAGAGCUAAACACAGCGUGUCAAAGUAGCUGUGGCUAGACUGCG | 0.06
39 | GUCAGAGCUCAACACAGCGUGGCAAAAUGGCUGAGGCUCGACUGCC | 0.04
40 | GGCAGAGCUCGACACAGCGGGGCAAAGUGGCUGUGCCUAUACUGCC | 0.01
41 | GUCAGAGCUCAACGCAGCGUGGAAAAGUGGCUGUGGCUAGACUGCC | 0.07
42 | GGCAAAGCUCAACACAGCGUGGCCAUGUGGUUGAGGGUAGACUGCC | 0
43 | GGCAGAGCUGAAAACAGCGUGGCAAAUUGGCUGUGGCUAGACUGCC | 0
44 | GGCAGAGCUCAUCACAGCGUGGCAUAGUGGCUGUCGCUAGACUGCC | 0.03
45 | GGCAGAGCUCAACACAGCGUGGCGAAGUGGCUGCGGCUGAACUGCC | 0.13
46 | GGCAGGGCUCAAAACAGCGUGGCAAAGAGGCUGUGGUUAGACUGCC | 0.05

Row | Variant | self-cleavage
47 | GGCAGAGCUCAACAAAGAGUGGCAAAGUGGCUGUGCCUAGACUGCC | 0.08
48 | GGCGGAGCUCAACACAGCGUGGCAAAGUGGUUGUGGCUUGACUGCC | 0.03
49 | GGCAGAGCUCAGCACAUCGUGGCAAAGUGGCUGAGGCUAGAAUGCC | 0.01
50 | GGCAAAGCUCAACACAGCGUGGCAAAGUGGCUAUGACUAGACUGCA | 0.03
51 | GGCAGAGCUCAACGUAGCGUGGCAAAGUGGAUGUGGCUAGACUGCC | 0.01
52 | GGCAGAGCUCACCACAGCGUGGCAAAGUUGUUGUGGCUGGACUGCC | 0.01
53 | GGCAGAGCUCAACACAGCGUGGUAAAGUGGAUGUGUCUAGACUGCC | 0.05
54 | GGCAGAGCUCAGCACAGCGUGGCAAAGUCCCUGUUGCUAGACUGCC | 0.03
55 | GGCAGAGCUCAACACAGCUUGGCAAAGUGGCUGUAGCUAUACUGCC | 0.07
56 | GUCAGAGAUCAACACAGCGUGGCAAAGUGGCUGUGGCUAGACUGCA | 0.07
57 | GGCAGAGCUCAUCACAGCGUGGCAAAGUGGCUGUUGCUAGCCUGCA | 0.01
58 | GUCAGAGCUCAACACAGCGUGCCAAAGUGGAUGUGGCUAGACUGCC | 0.02
59 | GGCACAGCUCAACACAGCGUGGCUAAGUUGCUGUGGCUAGACUGCC | 0.15
60 | UGCAGAGCUCAACAUAGCGUGGCAAAGUGUCUGUGGCUAGACUGCC | 0.05
61 | GGCAGGGCUCAACACAUCGUGGCAAAGUGGCUGUGGCUUGACUGUC | 0.02
62 | GGCAGAGCUUGACACAGCGUAGCAAAGUGGCUGUGUCUGGACUGCC | 0
63 | GACAGAGCUGAACACAGCGUGGCAAAGUGGCUGUGGCUAGACUGCU | 0.04
64 | GCCAGAGCUCCACCCAGCGUCGCCAAGUGGCUGAGGCUUGACUGCC | 0.01
65 | GGCAGCGCUCAACACAGAGUGGCAACAUAGCUGUGGCUAGACUGCC | 0.49
66 | GGCAGAGCUCAACACAGCCUGGCAAAGUGGCUGUGGCAAGACUGAC | 0.14
67 | GGCGGAGCUAAACACGGCGUGGCAAAGCGGCUUUGGCUAGACUCCC | 0.01
68 | GGCAGAGCUCAACACAGCGUGGCAAAGAGUCUGUGGCUAGACUUCC | 0.09
69 | GGCAGAGCUCAACACAGGGUGGCAAAUUGGCUGUGGCUGGACUGCC | 0.14

Row | Variant | self-cleavage
70 | GGCAGAGCUCAAGACAGCGUGGCAAAGUGGCUGGGGCUAAACUGCC | 0
71 | GGCAGUGCUCAACAAAGGGAGGCAAAGUGGCUGUGGCUAGACUGCC | 0.25
72 | CGCCGAGAUAAACACAGCGUGGCACAGUGGCUGUGGCUAGACUACC | 0.18
73 | UGCAGAGCUCAACACAGCGUGGAAAAGUGGCUGUGGUUAGACUGCC | 0.04
74 | GGCAGAGAUCAACACAGCGUGGCAAAGUGGCUGUAGCUAGACUGCA | 0.15
75 | GGCAGAGCUCAACUCAGCGUGGCAAAGUGGCUGUGGCGACACUGCC | 0.02
76 | GGGAGAGCACAACACAGCGUGGCAAACUGGCUGUGGCUAGACUGCC | 0.13
77 | GGCAGAGCACAACGCAGCGUGGCAAAGUGGCUGUGGCGAGACUGCC | 0.12
78 | GGCAGAGCUCAACACAGCGUGGUAAAGUGGCUGUGGCUAGACUCUC | 0.05
79 | AGCAUAGCUAAAAACAGCGCGGCAGAGUGGCUGUGGCUAGACUGCC | 0.04
80 | GGCAGAGCUCAACAUCGUGUCGCAAAGAGGCUGAAGCUAGACUGCC | 0.14
81 | GGCAGAGCUCAACACAGCGUGGCGCAGUGGCUUUGGCUAGACUGCC | 0.06
82 | GGCACAGCUCAACACAGAGUGGCCAAGUGGCUAGGGGUAGACUGCC | 0.05
83 | GGCAGUGCACAGCUCAGUGUGGCAAAGUGGCUGUGGCUAGAACGCC | 0.29
84 | AGCAGAGCUCAACACAGCGUGGCAAAGUCGCUGUGGCUAGACGGCC | 0
85 | GGCAGAGGUCAACACAGCGUUCCAAAGUGGCUGUGGCUAGACUGCC | 0.09
86 | GGCACAGCUUAACACAGAGCGGCAAAGUGGCUGUGGCUCGACUGCC | 0.09
87 | GGCAGAGGUCAACACAGCGUGGCAUAGUGGCUGUGGCAAGACUGGC | 0
88 | GGCCGAGCUCCACAUAGCGUGGCAAAGUGGCUGUAGCUAGACUGCC | 0.02
89 | GGCAGAGCUCAACACAGUGUGGCAAAGUCGCUGUGCCUAGACUGCC | 0.2
90 | GGCAGCGCUCAACACAGCGUGGCAAAGUGGCUCUGACAAGACUGCC | 0.06
91 | GGCAUAGCUCGACACAGCGUGGCAAAGUGGUUGUGGCUAGACUGAC | 0
92 | GGCAGAGCUCAACACAGCGUGGAAAAGUGGCUGCGGCUAGACUACC | 0.22

Row | Variant | self-cleavage
93 | GGCCGAGCUCAACACAGCGUGGCUAAGUGGCUGUGGCUAGACUGGC | 0.19
94 | GGCAGAGCUAAACACAGCGUGGCAAAGUUGCUGUGGCUAGACUGAC | 0.02
95 | GGCAGUGCUCUACACAGCGUGGCAAAGUGGCUGUGGCUAGUCUGCC | 0.05
96 | GGCAGUGCUCAACACAGCGUUGCAAAGUGGCUGUGGCUAUACUGCC | 0.39
97 | GGGCGAGCUCAGCACAGCGUGGCAAAGUGGCUGUGGCUAGACUGCC | 0.31
98 | GGCAGUGCUCAACACAGCGUGGCAAAGUGGCUGUGGCCCGACUGCC | 0.41
99 | GGCAGAGCUCAACACAGCGUGUCUAAGUGGCUGUGGCUAGUCUGCC | 0.39
100 | GGCAGAGCUAAACCCAGCGCGUCAAAGUGGCUGUGGCUAAGCUGCC | 0.01
101 | GGCAGAGCUCAACACAGCGUGGCAAAGUGUCUGUGGCUGAACUGCC | 0.05
102 | GACAGAGCUCAACACAGUGUGGGGAAGUGGCAGUGGCUGGACUGCC | 0.08
103 | GGCAGAGCUCAACACAGCGAGGCAAAGUGGCUGUGGUUUGACUGCC | 0.01
104 | GGCAGAGCUCAACACAGCAUGGCAAAGAGGCUGUGGCUGGACUGCC | 0.1
105 | GUCAGAGCUCAACACAGCGUGGCAAAGUGGCUGGGGCUAUACUGCC | 0.08
106 | GGCAGAGCUCAAGACAGCGUGGCAAAGUGGAUGUGGCGAGACUGCC | 0.02
107 | GGGAGAGCUCAACACAGCGUGGUAAAGUGGCUGUGGCUAGUCUGCC | 0.78
108 | GGCAGAGAUCAACACAGCGUGGCAAUGUGGCUGUGGCUAGACUGUC | 0.11
109 | GGCAGAGCUCAACCCAGCAUGGCAAAGUGGCUGUGGCUAGACUGAC | 0.02
110 | GGCAUAGCUCGACACAGCGCGGCAAAGUGGCUGAGGCUAGACUGCC | 0.02
111 | GGCGGAGCUCACCACAGCGUGGCAAAGUAGCUGUGGCUAGAUUGCC | 0.12
112 | GGGAGAGCUCAGAACAGCGUGGCAAAGUGGCUGUGGCUAGCCUGCC | 0.02
